No constants are given. Whether binding was seen depends on the method and setting. In cells and extracts the contact can be indirect. Some binding calls cover weakened binding; strength is not graded here. For some of these results: Sequences can lack the tags named with a protein.

By UniProt entry, the sequences of proteins in these tests, tags left out.
UniProt P54198: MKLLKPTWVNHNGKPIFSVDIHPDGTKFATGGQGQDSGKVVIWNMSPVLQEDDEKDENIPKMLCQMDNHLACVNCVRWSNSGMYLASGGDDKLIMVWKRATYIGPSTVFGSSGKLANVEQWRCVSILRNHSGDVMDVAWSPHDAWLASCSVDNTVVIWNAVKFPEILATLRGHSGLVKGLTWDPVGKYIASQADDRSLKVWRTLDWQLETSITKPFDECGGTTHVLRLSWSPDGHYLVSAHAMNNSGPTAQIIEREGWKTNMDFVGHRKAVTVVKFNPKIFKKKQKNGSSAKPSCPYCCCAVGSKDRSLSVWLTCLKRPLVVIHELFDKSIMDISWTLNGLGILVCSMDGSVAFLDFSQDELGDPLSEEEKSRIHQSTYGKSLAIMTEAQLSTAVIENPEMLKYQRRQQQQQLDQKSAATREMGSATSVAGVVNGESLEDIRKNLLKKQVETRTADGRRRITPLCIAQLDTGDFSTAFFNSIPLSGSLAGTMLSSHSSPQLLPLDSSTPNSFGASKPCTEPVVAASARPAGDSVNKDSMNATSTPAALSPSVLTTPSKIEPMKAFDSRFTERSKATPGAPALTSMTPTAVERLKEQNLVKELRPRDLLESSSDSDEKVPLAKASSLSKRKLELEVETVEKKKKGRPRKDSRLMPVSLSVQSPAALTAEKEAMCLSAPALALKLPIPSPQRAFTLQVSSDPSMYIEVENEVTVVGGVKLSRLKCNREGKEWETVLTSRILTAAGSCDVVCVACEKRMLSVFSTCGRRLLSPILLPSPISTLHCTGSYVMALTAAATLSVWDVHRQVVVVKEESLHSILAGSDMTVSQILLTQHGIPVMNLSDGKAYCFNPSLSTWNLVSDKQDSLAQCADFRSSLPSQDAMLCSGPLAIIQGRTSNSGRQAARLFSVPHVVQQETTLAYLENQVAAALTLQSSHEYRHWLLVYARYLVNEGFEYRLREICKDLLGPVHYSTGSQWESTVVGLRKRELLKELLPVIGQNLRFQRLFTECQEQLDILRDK
UniProt Q9NPG3: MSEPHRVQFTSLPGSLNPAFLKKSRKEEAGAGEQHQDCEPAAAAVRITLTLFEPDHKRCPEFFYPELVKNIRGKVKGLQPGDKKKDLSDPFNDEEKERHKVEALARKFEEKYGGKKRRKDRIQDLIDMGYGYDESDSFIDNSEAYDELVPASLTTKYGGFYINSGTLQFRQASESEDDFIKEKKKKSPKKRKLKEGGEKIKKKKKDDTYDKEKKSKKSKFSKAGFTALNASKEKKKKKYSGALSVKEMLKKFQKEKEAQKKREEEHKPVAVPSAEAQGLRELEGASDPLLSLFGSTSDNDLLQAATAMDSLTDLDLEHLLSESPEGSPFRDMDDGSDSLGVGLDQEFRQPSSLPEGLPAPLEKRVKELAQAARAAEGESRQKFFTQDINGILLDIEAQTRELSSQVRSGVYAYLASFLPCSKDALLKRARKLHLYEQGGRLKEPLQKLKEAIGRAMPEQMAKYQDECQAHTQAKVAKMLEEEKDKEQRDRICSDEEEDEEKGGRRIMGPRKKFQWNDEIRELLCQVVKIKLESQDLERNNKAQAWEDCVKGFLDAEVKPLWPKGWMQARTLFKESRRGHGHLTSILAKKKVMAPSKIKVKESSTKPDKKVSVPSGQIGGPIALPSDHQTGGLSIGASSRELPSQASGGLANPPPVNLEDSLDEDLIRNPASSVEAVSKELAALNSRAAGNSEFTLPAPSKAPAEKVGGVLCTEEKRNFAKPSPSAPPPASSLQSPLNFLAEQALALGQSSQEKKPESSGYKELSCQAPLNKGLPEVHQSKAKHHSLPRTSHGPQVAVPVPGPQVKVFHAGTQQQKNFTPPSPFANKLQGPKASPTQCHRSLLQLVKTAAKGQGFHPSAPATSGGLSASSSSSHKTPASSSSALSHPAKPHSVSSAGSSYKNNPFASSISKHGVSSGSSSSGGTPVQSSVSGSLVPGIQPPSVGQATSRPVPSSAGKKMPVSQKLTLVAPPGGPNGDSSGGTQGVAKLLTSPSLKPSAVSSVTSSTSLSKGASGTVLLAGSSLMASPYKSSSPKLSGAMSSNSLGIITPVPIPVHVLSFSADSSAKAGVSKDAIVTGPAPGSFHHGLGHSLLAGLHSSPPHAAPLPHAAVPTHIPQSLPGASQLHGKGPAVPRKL
UniProt Q9Y6J0: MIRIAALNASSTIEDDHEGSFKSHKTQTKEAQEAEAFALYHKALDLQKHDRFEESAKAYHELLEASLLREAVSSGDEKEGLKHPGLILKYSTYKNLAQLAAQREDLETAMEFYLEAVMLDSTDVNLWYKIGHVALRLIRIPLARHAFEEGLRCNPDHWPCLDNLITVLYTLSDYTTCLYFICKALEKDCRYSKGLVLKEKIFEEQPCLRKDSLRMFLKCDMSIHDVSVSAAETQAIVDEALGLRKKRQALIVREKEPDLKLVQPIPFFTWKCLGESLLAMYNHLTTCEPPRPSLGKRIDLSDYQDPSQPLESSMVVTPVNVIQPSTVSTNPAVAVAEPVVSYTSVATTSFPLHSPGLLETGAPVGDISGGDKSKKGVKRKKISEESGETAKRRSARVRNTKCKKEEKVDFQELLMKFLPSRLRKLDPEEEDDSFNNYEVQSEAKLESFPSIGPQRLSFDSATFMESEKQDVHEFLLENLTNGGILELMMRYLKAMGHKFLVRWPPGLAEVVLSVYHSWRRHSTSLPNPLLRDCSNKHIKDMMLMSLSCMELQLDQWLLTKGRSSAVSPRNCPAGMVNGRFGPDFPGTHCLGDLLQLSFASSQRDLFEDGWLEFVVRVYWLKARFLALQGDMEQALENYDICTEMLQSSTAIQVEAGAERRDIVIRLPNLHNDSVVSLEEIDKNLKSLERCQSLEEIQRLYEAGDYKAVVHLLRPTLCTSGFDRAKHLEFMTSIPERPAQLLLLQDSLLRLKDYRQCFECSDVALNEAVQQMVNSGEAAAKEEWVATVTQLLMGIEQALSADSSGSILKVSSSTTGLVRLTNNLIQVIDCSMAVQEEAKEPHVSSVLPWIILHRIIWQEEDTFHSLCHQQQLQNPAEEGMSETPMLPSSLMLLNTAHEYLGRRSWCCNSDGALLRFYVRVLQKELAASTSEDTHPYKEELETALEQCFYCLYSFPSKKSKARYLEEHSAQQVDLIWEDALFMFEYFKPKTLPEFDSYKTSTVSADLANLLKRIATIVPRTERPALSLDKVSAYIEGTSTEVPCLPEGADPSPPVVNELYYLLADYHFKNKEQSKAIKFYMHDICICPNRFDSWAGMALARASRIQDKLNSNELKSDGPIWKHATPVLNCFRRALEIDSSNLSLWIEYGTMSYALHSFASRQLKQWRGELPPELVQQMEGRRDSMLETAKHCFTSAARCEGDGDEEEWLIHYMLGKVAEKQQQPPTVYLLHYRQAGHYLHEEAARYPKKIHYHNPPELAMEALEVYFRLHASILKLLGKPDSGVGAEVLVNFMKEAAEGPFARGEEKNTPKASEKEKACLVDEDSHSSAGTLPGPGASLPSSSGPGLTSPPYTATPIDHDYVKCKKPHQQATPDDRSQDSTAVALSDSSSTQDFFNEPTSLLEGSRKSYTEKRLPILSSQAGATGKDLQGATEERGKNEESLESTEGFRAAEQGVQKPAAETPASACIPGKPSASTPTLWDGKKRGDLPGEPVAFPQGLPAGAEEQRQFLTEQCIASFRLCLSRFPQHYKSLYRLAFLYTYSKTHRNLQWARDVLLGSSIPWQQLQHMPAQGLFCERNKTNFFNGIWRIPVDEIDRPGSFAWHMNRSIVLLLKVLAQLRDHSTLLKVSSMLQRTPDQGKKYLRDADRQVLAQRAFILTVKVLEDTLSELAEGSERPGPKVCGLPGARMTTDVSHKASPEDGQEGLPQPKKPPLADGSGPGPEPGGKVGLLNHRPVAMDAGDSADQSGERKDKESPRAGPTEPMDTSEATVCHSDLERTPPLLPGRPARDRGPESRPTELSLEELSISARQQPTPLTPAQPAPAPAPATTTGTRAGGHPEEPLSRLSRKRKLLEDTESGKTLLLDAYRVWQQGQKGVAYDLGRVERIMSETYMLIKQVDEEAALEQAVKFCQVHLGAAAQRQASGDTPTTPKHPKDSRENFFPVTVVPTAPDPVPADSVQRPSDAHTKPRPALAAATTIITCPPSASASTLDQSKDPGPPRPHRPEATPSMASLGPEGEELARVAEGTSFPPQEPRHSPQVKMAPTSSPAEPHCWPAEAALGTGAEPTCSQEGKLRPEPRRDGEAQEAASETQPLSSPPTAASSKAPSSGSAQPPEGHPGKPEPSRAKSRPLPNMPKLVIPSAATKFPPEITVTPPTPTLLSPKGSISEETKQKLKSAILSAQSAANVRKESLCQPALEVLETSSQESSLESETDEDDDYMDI

The target in experiment [1] is T1, Prohibitin (PHB), endogenous nuclear (human (endogenous in MDA-MB-231)) (UniProt P35232).
T1 sequence: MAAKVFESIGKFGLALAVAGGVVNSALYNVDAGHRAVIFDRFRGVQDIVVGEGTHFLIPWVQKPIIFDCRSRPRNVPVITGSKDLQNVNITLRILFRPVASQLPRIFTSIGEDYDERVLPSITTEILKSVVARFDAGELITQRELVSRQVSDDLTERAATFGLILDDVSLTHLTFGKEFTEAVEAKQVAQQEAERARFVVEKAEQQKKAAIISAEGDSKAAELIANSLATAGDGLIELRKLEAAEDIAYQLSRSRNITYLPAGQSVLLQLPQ
The experiment in a line: co-IP; soluble nuclear fraction of MDA-MB-231 cells; IP with anti-PHB antibody, IgG control; western blot for endogenous proteins.

Experiment [2] has as its target T2, Flag-PHB domain (aa 55-172) (UniProt P35232).
T2 sequence: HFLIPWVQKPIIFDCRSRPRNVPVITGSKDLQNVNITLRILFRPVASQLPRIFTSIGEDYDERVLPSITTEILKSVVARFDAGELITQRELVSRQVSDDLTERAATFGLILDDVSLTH
The experiment in a line: co-IP; Flag-tagged PHB or PHB fragments and HA-HIRA exogenously expressed in HEK 293T cells; IP with M2 beads, western blot; Co-IP buffer 50 mM Tris pH 7.4, 100 mM NaCl, 5 mM EDTA, 0.1% NP40. On the technique in general: Immunoblotting shows a protein as a band on a membrane.

Experiment [3] deals with T3, Flag-PHB-M (PHB domain and coiled-coil domain, aa 55-252) (UniProt P35232).
T3 sequence: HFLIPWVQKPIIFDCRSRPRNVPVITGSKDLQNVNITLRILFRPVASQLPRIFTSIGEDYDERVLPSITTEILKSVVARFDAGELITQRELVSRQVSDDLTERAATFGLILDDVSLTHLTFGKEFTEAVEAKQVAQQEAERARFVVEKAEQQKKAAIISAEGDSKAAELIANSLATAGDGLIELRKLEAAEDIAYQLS
The description is as above.

Experiment [4] has as its target T4, Flag-coiled-coil (PHB coiled-coil domain, aa 175-252) (UniProt P35232).
T4 sequence: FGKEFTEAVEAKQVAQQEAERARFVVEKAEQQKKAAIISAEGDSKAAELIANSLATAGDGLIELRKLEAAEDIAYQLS
Described as above.

Experiment [5] concerns the target T5, Flag-tagged PHB (prohibitin 1), full length (UniProt P35232).
T5 sequence: T1 sequence
The experiment is described as above.

Take “HIRA (histone regulator A), endogenous (from UniProt P54198 1-1017)”: the binding entry in experiment [1] was “binds”. Still for that read-out and setting: the entry for “UBN1 (ubinuclein 1), endogenous (from UniProt Q9NPG3 1-1134)” is “binds”. On to “HA-tagged HIRA (histone regulator A) (from UniProt P54198 1-1017)”, for which the binding result in experiment [2] was “binds”; in experiment [3], “binds”; in experiment [4], “no binding”; in experiment [5], “binds”. As for “CABIN1 (calcineurin binding protein 1), endogenous (from UniProt Q9Y6J0 1-2220)”, in experiment [1], the binding result is listed as “binds”.

The values above are taken from PMC7530387.
